Data taken from PubChem BioAssay AID1461 (National Center for Advancing Translational Sciences (NCATS), 2008).
Among all 220,000 compounds or so, about 2,300 (1%) were called active. This list was built around the results that the source calls inconclusive (neither active nor inactive); the mix of calls is not that of the screen. Calls come from the whole dose curve; as a rule, active = well fitted inhibition curve with a large enough effect; inconclusive = small, poorly fitted or top-dose-only effect, or effect the other way; inactive = no such curve, though single readings can be large or run the other way. Potencies of inconclusive entries are left out as doubtful fits.

target: Neuropeptide S receptor (Homo sapiens) (UniProt Q6W5P4); experiment: qHTS Assay for Antagonists of the Neuropeptide S Receptor: cAMP Signal Transduction; conditions: CHO-NPSR cells, cAMP TR-FRET, antagonist mode; activity change, negative = inhibition: at 38.3 µM (top of the series) unless noted; note: nearly all actives have a fitted effect of over 50% in size
UniProt Q6W5P4, sequence (Q6W5P4 whole entry, looked up): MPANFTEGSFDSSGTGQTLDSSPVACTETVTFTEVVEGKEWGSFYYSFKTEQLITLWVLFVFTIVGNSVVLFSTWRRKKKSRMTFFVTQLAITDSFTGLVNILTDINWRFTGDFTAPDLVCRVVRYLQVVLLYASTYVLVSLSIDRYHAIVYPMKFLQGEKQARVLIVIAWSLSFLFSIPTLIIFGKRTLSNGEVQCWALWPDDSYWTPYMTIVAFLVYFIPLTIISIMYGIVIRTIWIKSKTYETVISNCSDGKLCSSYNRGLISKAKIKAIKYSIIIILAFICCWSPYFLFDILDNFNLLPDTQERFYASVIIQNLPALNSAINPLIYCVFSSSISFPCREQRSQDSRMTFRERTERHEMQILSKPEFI
% is set by controls: 0 for no effect and ±100 for the full control effect; potency is the fitted concentration of half-maximal effect; tags give direction and shape of the fitted curve.

Row | Compound | Potency | activity change, negative = inhibition
1 | COc1ccc(CCNC(=O)CC2SC(=NCCc3ccccc3)NC2=O)cc1OC (stereo unspecified) | inactive | 
2 | Clc1ccc(CN(CC2CCCO2)C(c2cccs2)c2nnnn2C2CCCC2)cc1 (stereo unspecified) | inconclusive [inhibitor, partial curve] | 
3 | O=C(CCCn1c(=S)[nH]c2ccsc2c1=O)NCc1ccco1 | inconclusive [inhibitor, single point] | 
4 | CCC(=O)N(Cc1cc2cc(C)c(C)cc2[nH]c1=O)C1CCCCC1 | inconclusive [inhibitor, single point] | 
5 | Cc1cccc(-c2n[nH]c(=S)n2/N=C/c2cccs2)c1 | inconclusive [activator, single point] | 
6 | COc1ccc(N(CC(=O)NCc2ccccc2C)S(=O)(=O)c2ccccc2[N+](=O)[O-])c(OC)c1 | inconclusive [activator, partial curve] | 
7 | Cc1ccc(C(C(=O)NC2CCCCC2)N(Cc2ccco2)C(=O)Cc2c[nH]c3ccccc23)o1 (stereo unspecified) | inconclusive [inhibitor, single point] | 
8 | CN(CC(=O)Nc1ccncc1)S(=O)(=O)c1ccc(Br)cc1 | inactive | 
9 | COC(=O)c1c(C)[nH]c(C(C)=O)c1C | inconclusive [inhibitor, single point] | 
10 | COc1ccccc1N1CCN(S(=O)(=O)/C=C/c2ccccc2)CC1 | inconclusive [inhibitor, single point] | 
11 | Cc1ccc2cc(CN(Cc3ccccc3)Cc3nnnn3C3CCCC3)c(=O)[nH]c2c1 | inconclusive [inhibitor, single point] | 
12 | COc1ccc(Nc2nnc(-c3ccc(C)cc3)c3ccccc23)cc1C(=O)N1CCCCC1 | inconclusive [inhibitor, single point] | 
13 | Cc1cc2oc(=O)cc(Cn3ncc(Cl)c(Cl)c3=O)c2cc1Cl | inconclusive [activator, single point] | 
14 | Cc1cc2c(cc1C)CSC(c1ccccc1OC(=O)C(C)(C)C)SC2 | inconclusive [inhibitor, single point] | 
15 | Cc1ccc(C(=O)CSc2nnc(CNc3ccc(C)cc3C)n2Cc2ccco2)cc1 | inconclusive [inhibitor, single point] | 
16 | COc1ccc2c(c1)sc(N)[n+]2Cc1cc(C)cc2cccnc12 | inactive | 
17 | COc1ccc(NC(=S)N/N=C2\CC(C)(C)Oc3ccc(O)cc32)cc1 | inactive | 
18 | CSc1nc2n(n1)C(c1cc(Br)ccc1F)C(C(=O)N(C)C)=C(C)N2 (stereo unspecified) | inconclusive [inhibitor, single point] | 
19 | O=C(CN1c2ccccc2Sc2ccccc21)NNC(=O)Nc1cccc(Cl)c1 | inactive | 
20 | Nc1cc(Cl)nc(N/N=C/c2ccccc2[N+](=O)[O-])n1 | inactive | 
21 | CCc1cc2c(=O)n(Cc3ccco3)c(SCC(=O)N(C)C3CCS(=O)(=O)C3)nc2s1 (stereo unspecified) | inactive | 
22 | Cc1nc(C)c(C(=O)Nc2ccccc2-c2ccccc2)o1 | inactive | 
23 | CC(C)c1nn(-c2cc(C(F)(F)F)ccn2)c(=O)o1 | inconclusive [activator, single point] | 

Row | Compound | Potency | activity change, negative = inhibition
24 | CCOC(=O)/C(C#N)=C\c1c(OCC)n(CC)c2ccccc12 | inconclusive [inhibitor, partial curve, poor fit] | 
25 | Cn1nc(C(F)(F)F)c(C(=O)Nc2ccc(F)cc2F)c1Oc1cccc(Cl)c1 | inconclusive [inhibitor, single point] | 
26 | Cc1cc(C)nc(NS(=O)(=O)c2ccc(NC(=O)c3ccc(S(=O)(=O)N4CC(C)OC(C)C4)cc3)cc2)n1 (stereo unspecified) | inactive | 
27 | COc1ccc(OC)c(-c2csc(NC(=O)c3ccc(OCC4CCCO4)cc3)n2)c1 (stereo unspecified) | inconclusive [inhibitor, single point] | 
28 | Nc1ccc(S(=O)(=O)Nc2ccc(Cl)nn2)cc1 | inconclusive [activator, single point] | 
29 | CCOc1ccccc1NC(=O)COC(=O)c1cccc(-c2ccc(OC(C)=O)cc2)c1 | inconclusive [inhibitor, partial curve] | 
30 | COc1ccc(C2C(C(=O)N3CCN(c4ccccc4)CC3)c3ccccc3C(=O)N2C)cc1 (stereo unspecified) | inactive | 
31 | Cc1ccccc1Cn1c(Cc2ccccc2)nc2ccccc21 | inconclusive [inhibitor, single point] | 
32 | CCSc1cnn(-c2ccccc2)c(=O)c1SCC | active: 12.6 µM | 
33 | Cc1cc(Cl)ccc1N=C1N=C(N)c2ccccc21 | inactive | 
34 | COc1ccc(C2CC(=O)N3CN(c4ccccc4F)CSC3=C2C#N)cc1OC (stereo unspecified) | inactive | 
35 | Cc1ccc(-c2cc(-c3cccc(F)c3)n[nH]2)c(O)c1 | inconclusive [inhibitor, single point] | 
36 | Cc1cc(Nc2cccc(Cl)c2)nc(NCc2ccccc2)n1 | inconclusive [inhibitor, single point] | 
37 | Cc1cc2ccccc2n1CCNC(=O)c1ccccc1 | inactive | 
38 | CCOC(=O)c1c(NC(=O)CSc2nnc(-c3ccncc3)n2Cc2ccco2)sc(C)c1C | inconclusive [inhibitor, single point] | 
39 | O=C1c2ccccc2C(=O)N1CCC1=CCCCC1 | inconclusive [inhibitor, single point] | 
40 | CC(c1ccco1)N(C(=O)C12CC3CC(CC(C)(C3)C1)C2)c1ccccn1 (stereo unspecified) | inconclusive [inhibitor, single point] | 
41 | C=CCNC(=S)NNC(=O)c1ccc(OC(C)C)cc1 | inactive | 
42 | C/C(=N\NC(=O)c1ccccc1NC(=O)c1ccc(Cl)cc1)c1ccncc1 | inactive | 
43 | Cc1c(Cl)cccc1NC(=O)CN1CCC(C(O)(c2ccccc2)c2ccccc2)CC1 | inconclusive [inhibitor, partial curve] | 
44 | CC(=O)N1CSCC1C(=O)NNS(=O)(=O)c1ccccc1 (stereo unspecified) |  | inactive: -7.55% [at 7.67 µM]
45 | Cc1ccc2nc(N3C(=O)CNC3=S)sc2c1 | inconclusive [activator, single point] | 
46 | Cc1ccccc1NC(=S)N(Cc1cccs1)C1CCCC1 | inconclusive [inhibitor, single point] | 
